Measurements: PMC4336329 (PLoS ONE, 2015)
In all, about 310,000 compounds went through this assay and about 14,000 (4.5%) showed an effect of 50% or more. Effects have a minus sign here. The list shows a part of the results.

Each molecule was assayed against human ether-à-go-go-related gene (hERG) potassium channel (human, UniProt Q12809) (assay: primary screen, population patch clamp on CHO cells stably expressing hERG).
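Further: peak tail current of the secondary pulse compared with the same well before compound.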

human ether-à-go-go-related gene (hERG) potassium channel, sequence (Q12809 whole entry, looked up): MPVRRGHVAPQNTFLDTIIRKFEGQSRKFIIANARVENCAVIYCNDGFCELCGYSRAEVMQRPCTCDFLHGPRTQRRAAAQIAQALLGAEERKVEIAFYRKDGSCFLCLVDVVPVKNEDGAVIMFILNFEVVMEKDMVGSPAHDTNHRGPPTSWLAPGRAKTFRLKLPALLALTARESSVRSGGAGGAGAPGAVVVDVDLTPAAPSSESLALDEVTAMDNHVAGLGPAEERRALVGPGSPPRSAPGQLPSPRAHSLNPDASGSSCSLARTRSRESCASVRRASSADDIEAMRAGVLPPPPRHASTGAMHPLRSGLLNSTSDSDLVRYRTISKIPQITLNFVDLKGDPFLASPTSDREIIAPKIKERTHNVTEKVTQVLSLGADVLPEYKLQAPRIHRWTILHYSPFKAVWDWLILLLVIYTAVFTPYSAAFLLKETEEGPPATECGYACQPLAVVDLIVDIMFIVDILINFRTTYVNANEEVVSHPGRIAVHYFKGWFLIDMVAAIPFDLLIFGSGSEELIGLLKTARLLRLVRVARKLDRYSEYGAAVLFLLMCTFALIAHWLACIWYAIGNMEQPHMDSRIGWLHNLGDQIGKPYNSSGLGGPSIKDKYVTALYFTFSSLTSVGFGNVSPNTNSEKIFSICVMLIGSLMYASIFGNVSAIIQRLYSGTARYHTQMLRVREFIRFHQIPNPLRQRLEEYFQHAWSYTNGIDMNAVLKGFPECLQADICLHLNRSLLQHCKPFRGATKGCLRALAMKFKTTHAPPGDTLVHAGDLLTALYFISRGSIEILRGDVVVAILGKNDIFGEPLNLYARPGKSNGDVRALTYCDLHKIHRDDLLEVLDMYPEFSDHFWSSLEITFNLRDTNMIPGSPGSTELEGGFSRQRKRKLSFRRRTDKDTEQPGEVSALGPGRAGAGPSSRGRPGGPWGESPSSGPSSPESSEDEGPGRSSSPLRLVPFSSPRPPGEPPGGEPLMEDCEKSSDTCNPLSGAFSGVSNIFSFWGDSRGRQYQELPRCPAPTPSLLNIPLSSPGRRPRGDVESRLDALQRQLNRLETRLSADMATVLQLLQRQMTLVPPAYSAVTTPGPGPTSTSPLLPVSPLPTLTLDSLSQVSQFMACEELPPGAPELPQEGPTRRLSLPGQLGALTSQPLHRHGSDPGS

SMILES | hERG current change (%, negative = inhibition) at 10uM [%]
Cc1ccc2nc(C)n(-c3ccc(F)cc3)c(=O)c2c1 | 21.3
C[C@@H]1CCC[C@]2(O[C@H](CCO)C[C@H](O)[C@H]2O)O1 | 5.55
CCOC(=O)CCc1c(C)n[nH]c1C | 11.4
O=C(NCc1ccccc1Cl)c1ccc[nH]1 | -14.4
Cc1ccc(CN2C3CCCC2CC(NC(=S)NCc2ccccc2)C3)cc1 (stereo not drawn) | -72.4
COc1cc(S(=O)(=O)N2CCC(C(N)=O)CC2)c(C)cc1C | 14.2
COc1ccc(Br)cc1S(=O)(=O)Nc1ncn[nH]1 | 13.4
CC(=O)NC1=NN(C(C)=O)C(c2ccc(C)cc2)S1 (stereo not drawn) | 34.1
CC(C)Cc1nnc(NC(=O)c2cc([N+](=O)[O-])ccc2N2CCOCC2)s1 | -51.4
COc1ccc(NS(=O)(=O)c2cccc(C(=O)NNC(=O)CNC(=O)c3ccc(C)cc3)c2)cc1 | -2.64
O=C(c1ccccc1Cc1ccccc1)N1CCN(S(=O)(=O)c2ccccc2[N+](=O)[O-])CC1 | -13
OC(c1ccccc1)C(O)c1ccccc1 (stereo not drawn) | 20.2
Cc1onc(-c2ccccc2Cl)c1C(=O)NC(=S)Nc1ccc(C(C)C)cc1 | 10.4
COc1ccc(CCNc2nc(-c3sc(C)nc3C)cs2)cc1OC.O=C(O)C(=O)O | -28.4
CCOC(=O)C1CCN(C(=O)CSc2n[nH]c(=O)[nH]c2=O)CC1 | 7.16
CS(=O)(=O)N(CC(=O)N1CCCC1)Cc1ccc(Cl)cc1 | -4.75
COc1cccc(NC(=O)CSc2nc3c([nH]c4ccccc43)c(=O)n2C)c1 | 16.4
CCOC(=O)C1(Cc2ccc(Cl)cc2)CCN(C2CCC2)CC1 | -44.9
CCOCCCn1c(SC(C(=O)Nc2cc(C)ccc2C)c2ccccc2)nnc1-c1ccc(Cl)cc1 (stereo not drawn) | -4.82
CC(C)Oc1ccc(C2CC(=O)N(c3ccc(C(=O)O)cc3)C2=O)cc1 (stereo not drawn) | 11.8
Cc1nn(C(C)(C)C)c(OC(=O)c2ccc3c(c2)OCO3)c1S(=O)(=O)c1ccccc1 | 2.49
COc1ccc(C(=O)CC(=O)c2ccccc2O)cc1 | 16.6
CCc1ccc(C(=O)N2CCN(c3ccc(NC(=O)c4cccnc4)cc3)CC2)cc1 | -71.3
CC(=O)C1=C(C)OC(N)=C(C#N)C1c1cc2cc(C)c(C)cc2nc1Cl (stereo not drawn) | -2.94
